Laboratory results taken from article PMC12136788.
Some of the results follow.

B1: chr14:73742652:73742653:-_ENSG00000133961_ENST00000557597|hu_hu|FALSE|FALSE (ssRNA)
RNA: GGGAGUUCUACAGUCCGACGAUCCCCCUUUACCUUUGGCAAGAUUACUUACAACUCAUACAACUUCUUAAUAUCUGAGAACUAUUUAAAAUAUUCUAAAUGCAUAAAAAUAAAGAUUUUGGCUUUUGAUAUAUAUAAUAUUUACAACAGAGGAUUGAGCAUCA
B2: chr15:66793352:66793353:-_ENSG00000174444_ENST00000568588|hu_hu|FALSE|FALSE (ssRNA)
RNA: GGGAGUUCUACAGUCCGACGAUCCUUGAGGGAAGCGGCUUUACGCCAAGUGCCGUACAAUUCAUCUAACUUCCGGAAAGCACUUUCAGUCCAAAUGCAGAAACGUCCCACAUGCCCACCAGGAGCAAGCUUCAAAAUGUUCAGCAACAGAGGAUUGAGCAUCA
B3: chr7:19737724:19737725:-_ENSG00000105849_ENST00000222567|hu_mus|FALSE|FALSE (ssRNA)
RNA: GGGAGUUCUACAGUCCGACGAUCGAGCUUUAACAAUAUGAGUCAAGAGUAAAUGCAAUUGUUAACAUUUUCCACUGAACUGUAAUAAAAUAAUACUUUAAUACUGGCAUUUUCCAAAAUGUAUUUAUCAAUGUAUGAUUUUAGCAACAGAGGAUUGAGCAUCA
B4: chr11:87793471:87793472:-_ENSMUSG00000020483_ENSMUST00000020775|mus_mus|mus_mus_mus_hu_False|28_58 (ssRNA)
RNA: GGGAGUUCUACAGUCCGACGAUCUGGACUUGAAAAUAAAAGAAUAAGCUGGAUCCCCCACCCCCCCACAUUGUCAACCCUAUGCGAGAGUUUUGAAGGCGACUCAUGAAUCAGCAGAGCUCAAACGGCAAUGACCACCCCACCCAACAGAGGAUUGAGCAUCA
B5: chr5:24093644:24093645:+_ENSMUSG00000038181_ENSMUST00000088295|mus_hu|FALSE|FALSE (ssRNA)
RNA: GGGAGUUCUACAGUCCGACGAUCCUCCUUCUGCCUGCUCUUCAACUGUGAAGGUGUCGGAACUAACCCCCAGCCAAAACGGUAAUAAAUGAAACAAUCAAUUUCACUCACACUGGGAUUAUGGUCUGUCUUCCACUAAAAAGACAACAGAGGAUUGAGCAUCA
B6: 90669621_90670016_1274_3pUTR_ENSG00000113369_ENST00000265138|human|control|control (ssRNA)
RNA: GGGAGUUCUACAGUCCGACGAUCUCCUCUGUUACCACUUCUGCAUAGCUGGGUGGUGCUUCAGGUCUUUCAGGAAGUGAUAAACUGAGCCAGUUCAUAUUCAUGCUACACUGACUGCUUACACUUGAGGUUCUGCUACCAAAUCAACAGAGGAUUGAGCAUCA
B7: chr7:102950833:102950834:+_ENSG00000105819_ENST00000453466|hu_mus|FALSE|FALSE (ssRNA)
RNA: GGGAGUUCUACAGUCCGACGAUCGACCAUAUAGAGUCCCCAUAAUCCUGUGUCUGUAUAUGAAGUAUUGAAGGACUGGAAGCUGUGGCAGAGAUUGCCAUGGCAAGUGAGUUGGGCCAGCUUGCUAGAUAAAUUCAUUCCUCCCAACAGAGGAUUGAGCAUCA
B8: chr14:76904430:76904431:+_ENSMUSG00000022010_ENSMUST00000022587|mus_mus|mus_mus_mus_hu_True|1_1 (ssRNA)
RNA: GGGAGUUCUACAGUCCGACGAUCUGCAGCCAAAAACACCCUCGUGGAAAAAAAGAGGGAACACCAGCAGCCUUGUAUAAGCUAGAUAAAAUCUUCUGGCUUUCCGCAGCCCAGGGAGAAACAGAAAACGGCAGCCCUCGAGUGCAACAGAGGAUUGAGCAUCA
B9: 9102711_9117871_144_CDS_ENSG00000178127_ENST00000318388|human|control|control (ssRNA)
RNA: GGGAGUUCUACAGUCCGACGAUCCAUAACUGUCUUAUGCAAAUUCCUUACAUGUCUUCCCCAGUGGGCGGUGAGGCCAGCCGCCCGGGCCCGGAGCGCCGCGGAGAAGAACAUGGCGGGCCACACUGUUCACCUUCCCCAGCCCAACAGAGGAUUGAGCAUCA
B10: chr17:65740002:65740003:+_ENSG00000130935_ENST00000581375|hu_hu|hu_hu_hu_mus_False|38_78 (ssRNA)
RNA: GGGAGUUCUACAGUCCGACGAUCAACAAAUCUUUCUUCCCUGGACGAACAGGAAGACAUAAAAGAGAAAAAAUAUAUAUCCAUCAAGUUAGGUGUGUAAUAUCAGACUUUACUCCCAGCACUUUGGGAGGUGGAUCUCUGAGUCAACAGAGGAUUGAGCAUCA
B11: chr1:16667403:16667404:+_ENSMUSG00000025940_ENSMUST00000065373|mus_mus|motif|central (ssRNA)
RNA: GGGAGUUCUACAGUCCGACGAUCGUCAUAACCCAUUAGAUGGUUAUAGUCUUCAGGGUUUAAAAAGAGUGCUGGAUUAACGGAUAGCGAUUUUGUUUUAGCAUAAAAGCUGGUGAAUAUAUGUGCGCUCUCUGGAAUUGUCACCAACAGAGGAUUGAGCAUCA
B12: chr9:72560005:72560006:+_ENSMUSG00000032216_ENSMUST00000034740|mus_mus|FALSE|FALSE (ssRNA)
RNA: GGGAGUUCUACAGUCCGACGAUCAGCCUGGUCUGCAUUUUCAUCUUCUGAGCCAUUUUUAGGUAAAUAAGUCAUUUUUAAUCUCAGAUAACCUUUAACUCUUGAUUUGUGACUUCUUGGAUGAAGAACAAAAUCCUUAAAUGUCAACAGAGGAUUGAGCAUCA
B13: chr3:152055631:152055632:+_ENSMUSG00000025437_ENSMUST00000117492|mus_hu|FALSE|FALSE (ssRNA)
RNA: GGGAGUUCUACAGUCCGACGAUCAGAGUCAGGGUGAUUUAGGACAAUGAAAAAGUUUUCAAAGCAAAAGUAUUUACAACACUACAAAGGAUACUAUGGAUCUGCAUGUAGUGUAAAGAUUAAAGAUAACCUACUGAUUUCACACAACAGAGGAUUGAGCAUCA
B14: chr3:138113954:138113955:+_ENSMUSG00000028138_ENSMUST00000005964|mus_mus|FALSE|FALSE (ssRNA)
RNA: GGGAGUUCUACAGUCCGACGAUCCGAAGGAUCGAUUUUAGCAACAGAGAUGUCAGCCACAACUGUGUACUCGGAAAAUGUGCUAGUCCCCAUGAAGUGAAAAACAGACUUUCCUUUGCAGGUAAAUCUGCUAGUCCCAUCUGGCAACAGAGGAUUGAGCAUCA

What follows are binders tested against T1, UNK ZnF1-3 (human, UniProt Q9C0B0 31-174) (assay: nsRBNS (natural sequence RNA bind-n-seq); RBNS binding buffer (assumed for nsRBNS): 25 mM Tris pH 7.5, 150 mM KCl, 3 mM MgCl2, 0.01% Triton X-100, 500 ug/ml BSA, 20 U/ml SUPERase-In, 4 C; UNK is unkempt and MSI1 is Musashi-1; names of the RNAs are library labels; protein concentration not given here; high values mean tight binding).
T1 sequence: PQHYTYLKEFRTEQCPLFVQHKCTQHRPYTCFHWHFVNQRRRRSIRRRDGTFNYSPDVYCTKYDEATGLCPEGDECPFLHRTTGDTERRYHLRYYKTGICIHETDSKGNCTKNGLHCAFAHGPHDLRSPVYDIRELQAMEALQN
In the case of B1, the binding signal is reported as 1.07 enrichment R.
With B2 the binding signal was 0.993 enrichment R.
Work on B3 yielded a binding signal of 0.585 enrichment R.
Work on B4 yielded a binding signal of 1.37 enrichment R.
With B5 the binding signal was 1.34 enrichment R.
For B6, the binding signal was 0.631 enrichment R.
For B7, the binding signal was 1.14 enrichment R.
B8 was tested, and the binding signal was 1.81 enrichment R.
In the case of B9, the binding signal is reported as 0.918 enrichment R.
B10 was tested, and the binding signal was 1.23 enrichment R.
Work on B11 yielded a binding signal of 0.874 enrichment R.
For B12, the binding signal was 0.934 enrichment R.
B13 was tested, and the binding signal was 0.866 enrichment R.
B14 was tested, and the binding signal was 1.1 enrichment R.
